# Measurements taken from PubChem BioAssay (NCATS).
# “And” between values parts separate entries of the source, which are not always exact repeats. Equal entries are not always repeated. The inconclusive results got no clear call from the source; some entries with a clear call stand among them for comparison. Potencies beside an inconclusive call are fits to weak or partial responses and may not hold up. The source made the active and inactive calls. Calls come from the whole dose curve; as a rule, active = well fitted activation curve with a large enough effect; inconclusive = small, poorly fitted or top-dose-only effect; inactive = no such curve, though single readings can be large or run the other way.
# Biological target: Cellular tumor antigen p53 (Homo sapiens) (UniProt P04637)
# Experiment: Primary qHTS for small molecule compounds that upregulate eGFP-tagged delta133p53alpha (in N-terminal) cells. (AID 2060322); note: nearly all actives have a fitted effect of over 75% in size;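 for activation: series mostly up to about 56 µM; 0% = DMSO vehicle and 100% = reference activator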
# Details: NCI-H358 eGFP-delta133p53alpha fluorescence, 24 h; activation: active compounds read high
# Outline: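 NCI-H358 cells pre-induced 24 h with 10 ng/ml doxycycline to express N-terminal eGFP-delta133p53alpha, then dosed 24 h at 37C without doxycycline; fixed, Hoechst-stained, GFP intensity by laser scanning cytometry, normalized to DMSO (0%) and 57.5 uM 5-azacytidine (100%).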
# Potency is the fitted concentration of half-maximal effect; tags give direction and shape of the fitted curve.
# Chain of UniProt P04637 (P04637 whole entry, looked up): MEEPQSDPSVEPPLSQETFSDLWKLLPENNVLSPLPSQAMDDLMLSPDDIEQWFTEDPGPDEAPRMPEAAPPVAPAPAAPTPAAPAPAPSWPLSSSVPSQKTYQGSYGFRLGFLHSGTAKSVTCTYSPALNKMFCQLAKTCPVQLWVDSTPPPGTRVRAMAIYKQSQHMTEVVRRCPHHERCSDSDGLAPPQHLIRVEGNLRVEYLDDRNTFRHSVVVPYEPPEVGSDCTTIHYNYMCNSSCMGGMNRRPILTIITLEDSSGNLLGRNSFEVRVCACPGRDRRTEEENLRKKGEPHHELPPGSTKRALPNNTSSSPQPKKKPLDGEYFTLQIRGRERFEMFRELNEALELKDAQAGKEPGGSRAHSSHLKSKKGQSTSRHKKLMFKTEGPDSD
SMILES,Potency,activation
CCCNC(=O)[C@H]1O[C@H]1C(=O)N[C@H](C(=O)N1CCC[C@@H]1C(=O)OC)C(C)CC (stereo not given in full),"inconclusive: 27.3 µM [activator, single point]",–
CNc1ncnc2c1ncn2[C@@H]1O[C@H](CO)[C@@H](O)[C@H]1O,–,inactive: 5.48%
Cc1ccc(N)cc1O,active: 28.2 µM,–
CC(C)C(=O)c1c(C(C)C)nn2ccccc12,–,inactive: -13.4% and inactive: -31.4%
CCOC(=O)NCCCC(=O)NCCc1ccccc1,–,inconclusive: -1.12% [activator]
Brc1ccccc1-c1ccccc1,"inconclusive: 15.1 µM [activator, partial curve]",–
COc1cc2ncnc(Nc3ccc(F)c(Cl)c3)c2cc1NC(=O)C=CCN1CCCCC1,"inconclusive: 0.0385 µM [activator, full curve, poor fit]",–
C[C@@H]1O[C@@H](O[C@H]2[C@H](OC(=O)[C@]34CCC(C)(C)C[C@H]3C3=CCC5[C@@]6(C)C[C@H](O)[C@H](O[C@@H]7O[C@H](CO)[C@@H](O)[C@H](O)[C@H]7O)[C@](CO)(C(=O)O)C6CC[C@@]5(C)[C@]3(C)C[C@H]4O)OC[C@H](O)[C@@H]2O)[C@H](O)[C@H](O)[C@H]1O[C@@H]1OC[C@@H](O)[C@H](O[C@@H]2OC[C@](O)(CO)[C@H]2O)[C@H]1O (stereo not given in full),"inconclusive: 0.32 µM [activator, partial curve]",–
O=C(O)c1ccnc(-c2cc(C(=O)NCCc3ccccc3)ccn2)c1,–,inactive: 4.47%
O=C(O)[C@H]1NCCC[C@H]1C(=O)O,–,inactive: -3.88%
Cn1c(=O)n(-c2ccc(C(C)(C)C#N)cc2)c2c3cc(C#Cc4cccnc4)ccc3ncc21,–,inactive: 26.8%
CN(C)C/C=C/C(=O)Nc1cc2c(Nc3ccc(F)c(Cl)c3)ncnc2cc1OC1CCOC1 (stereo not given),active: 7.57 µM,–
CC1(C(=O)Nc2ccc(F)nc2)CCCN1c1nc(Nc2cc(C3CC3)[nH]n2)c2cccn2n1 (stereo not given),active: 30.1 µM,–
CC1CCC2(C(=O)OC3OC(COC4OC(CO)C(O)C(O)C4O)C(O)C(O)C3O)CCC3(C)C(=CCC4C5(C)CCC(O)C(C)(C(=O)O)C5CCC43C)C2C1(C)O (stereo not given),"inconclusive: 2.03 µM [activator, single point]",–
CCN1CCN(Cc2ccc(C(=O)Nc3ccc(C)c(Oc4ccc5c(c4)CC(=O)N5)c3)cc2C(F)(F)F)CC1,"inconclusive: 30.1 µM [activator, single point]",–
CC1CCC2C(C)(C)C(O)CCC2(C)C12Cc1c(O)cc3c(c1O2)C(N)=NC3 (stereo not given),"inconclusive: 10.5 µM [activator, partial curve, poor fit]",–
CN1CCN(Cc2ccc(-c3cnc4[nH]cc(-c5ccc6[nH]ccc6c5)c4c3)cc2)CC1,active: 23.9 µM,–
CCc1cccc(CC)c1NC(=O)c1nn(C)c2c1CCc1cnc(Nc3ccc(C(=O)NC4CCN(C)CC4)cc3OC(F)(F)F)nc1-2,"inconclusive: 18.5 µM [activator, single point]",–
CCCCC1C(=O)N(c2ccccc2)N(c2ccc(O)cc2)C1=O (stereo not given),active: 4.37 µM,–
COc1cc2c(Nc3ccc(Cl)c(Cl)c3F)ncnc2cc1OCC1C[C@@H]2CN(C)C[C@H]2C1,"inconclusive: 0.0017 µM [activator, full curve, poor fit]",–

SMILES,Potency,activation
CCC(C)/C=C(C)/C=C/C1=CC2=CC(=O)C3(C)OC(C)(O)C(C(=O)OC)C3C2=CO1 (stereo not given),active: 13.1 µM,–
CC(C)CCC[C@@H](C)[C@H]1CC[C@H]2[C@@H]3CC(=O)[C@H]4C[C@@H](O)CC[C@]4(C)[C@H]3CC[C@]12C,–,inactive: -7%
CC1(C)CC[C@]23CO[C@@]4(CCC5[C@@]6(C)CC[C@H](O[C@@H]7OC[C@H](O[C@@H]8O[C@H](CO)[C@@H](O)[C@H](O)[C@H]8O[C@@H]8OC[C@@H](O)[C@H](O)[C@H]8O)[C@H](O)[C@H]7O[C@@H]7O[C@H](CO)[C@@H](O)[C@H](O)[C@H]7O)[C@@](C)(CO)C6CC[C@@]5(C)[C@]4(C)C[C@H]2O)[C@@H]3C1 (stereo not given in full),"inconclusive: 5.71 µM [activator, partial curve, poor fit]",–
CCCCCCCCCCCCCCCCOP(=O)([O-])OCC[N+](C)(C)C,"inconclusive: 38.9 µM [activator, single point]",–
CC1(C)CC(NC(=O)C(=O)Nc2ccc(Br)cc2)CC(C)(C)N1,active: 13.5 µM,–
CC(C)[C@H](CO)Nc1nc(Nc2cccc(Cl)c2)c2ncn(C(C)C)c2n1,active: 24.3 µM,–
C[C@@H]1[C@H]2[C@H](O[C@@H]3O[C@H](CO)[C@@H](O)[C@H](O)[C@H]3O)OC=C(C(=O)O)[C@H]2C[C@@H]1O,"inconclusive: 18.6 µM [activator, single point]",–
N#CCC(C1CCCC1)n1cc(-c2ncnc3[nH]ccc23)cn1 (stereo not given),"inconclusive: 23.9 µM [activator, single point]",–
c1ccc2c(Nc3nnc(-c4ccncc4)s3)cccc2c1,"inconclusive: 33.8 µM [activator, single point]",–
COC(=O)C1=CO[C@@H](O[C@@H]2O[C@H](CO)[C@@H](O)[C@H](O)[C@H]2O)[C@@H]2[C@@H](C(=O)O)CC[C@H]12,–,inactive: -5.34%
C=C1[C@H]2CC[C@H](C(=O)O)[C@@]23CC[C@H](C3)C1(C)C,"inconclusive: 37.9 µM [activator, single point]",–
CCN(C)C(=O)Oc1cccc([C@H](C)N(C)C)c1,–,inactive: 6.21% and inactive: 13.7%
COc1cccc2c(NCc3ccccc3)nc(-n3c(N)nc4ccccc43)nc12,"inconclusive: 37.9 µM [activator, single point]",–
C1CCN2C[C@@H]3C[C@@H](CN4CCCC[C@@H]34)[C@H]2C1,"inconclusive: 3.47 µM [activator, single point]",–
OC1C=C2C3CN(Cc4cc5c(cc43)OCO5)C2CC1O (stereo not given),"inconclusive: 26.9 µM [activator, single point]",–
COc1cc(C(=O)O)ccc1NC(=O)C1NC(CC(C)(C)C)C(C#N)(c2ccc(Cl)cc2F)C1c1cccc(Cl)c1F (stereo not given),"inconclusive: 37.9 µM [activator, single point]",–
C[C@@H](O)[C@H]1C(=O)N2C(C(=O)O)=C(S[C@@H]3CN[C@H](C(=O)N(C)C)C3)[C@H](C)[C@H]12,"inconclusive: 11 µM [activator, partial curve, poor fit]",–
CNc1nc(-c2ccc3c(N)n[nH]c3c2)cc(N2CC(C(=O)NC3CCCCC3)CCC2C)n1 (stereo not given),"inconclusive: 37.9 µM [activator, single point]",–
CC(C)=C1C[C@@]2(C)C(=CC1=O)CC[C@@H](OC(=O)/C(C)=C/CO)[C@@H]2C,–,inactive: 5.34%
CC(C)=CCC/C(C)=C/CO[C@@H]1O[C@H](CO)[C@@H](OC(=O)/C=C/c2ccc(O)cc2)[C@H](O[C@@H]2O[C@@H](C)[C@H](O)[C@@H](O)[C@H]2O)[C@H]1O,–,inactive: 19.6%
